This is one part of the list. Single values are uncertain, as repeats are few or missing.
Assays:
Test in all cases: cell count relative to DMSO control; melanoma cells; higher = more viable cells
Conditions in all cases: library dose: low library concentration; 72 h
MZ2-MEL = system: MZ2-MEL
MeWo = system: MeWo
RPMI7951 = system: RPMI7951
RVH-421 = system: RVH-421
SkMel28 = system: SkMel28
SkMel2 = system: SkMel2
SkMel30 = system: SkMel30
SkMel5 = system: SkMel5
UACC257 = system: UACC257
UACC62 = system: UACC62
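Note: cell number obtained by counting DAPI-stained nuclei in high-throughput microscope images with image analysis software, screen run in 1,536-well plates.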

| SMILES | cell count (MZ2-MEL) | cell count (MeWo) | cell count (RPMI7951) | cell count (RVH-421) | cell count (SkMel28) | cell count (SkMel2) | cell count (SkMel30) | cell count (SkMel5) | cell count (UACC257) | cell count (UACC62) |
| --- | --- | --- | --- | --- | --- | --- | --- | --- | --- | --- |
| O=C(Nc1cc(C(F)(F)F)cc(C(F)(F)F)c1)c1cc(Cl)ccc1O + O=C1NC(=O)/C(=C/c2ccc(-c3ccc(F)cc3O)o2)S1 [AS252424] (first compound 0.016 µM, partner dose 1 µM) | 106% | 97.5% | 101% | 73.3% | 84.4% | 101% | 94.5% | 90.3% | 105% | 88.2% |
| O=C(Nc1cc(C(F)(F)F)cc(C(F)(F)F)c1)c1cc(Cl)ccc1O + COC(=O)c1sccc1S(=O)(=O)Nc1ccc(Nc2ccccc2)cc1OC [GSK0660] (first compound 0.016 µM, partner dose 1 µM) | 91.7% | 97.7% | 103% | 92.2% | 94.6% | 110% | 107% | 94.6% | 88.1% | 96.8% |
| Cc1cc(N2CCOCC2)cc2[nH]c(-c3c(NC[C@@H](O)c4cccc(Cl)c4)cc[nH]c3=O)nc12 + Cn1cncc1[C@@](N)(c1ccc(Cl)cc1)c1ccc2c(c1)c(-c1cccc(Cl)c1)cc(=O)n2C [tipifarnib] (first compound 0.2 µM, partner dose 0.01 µM) | 89.6% | 81.6% | 85.9% | 94% | 93.6% | 76% | 92.1% | 97.2% | 53.3% | 59.8% |
| Cn1nnc2c(C(N)=O)ncn2c1=O [temozolomide] + C[C@@H]1CCN(C(=O)CC#N)C[C@@H]1N(C)c1ncnc2[nH]ccc12 [CP690550] (first compound 2 µM, partner dose 1 µM) | 94.6% | 89% | 109% | 101% | 87.2% | 105% | 81.5% | 108% | 98.4% | 85.3% |
| O=C(O)[C@@H]1[O][Sb](=[O])([O][Sb]2(=[O])[O][C@H]([C@H](O)CO)[C@H](O)[C@H](C(=O)O)[O]2)[O][C@H]([C@H](O)CO)[C@@H]1O (stereo not given in full) [stibogluconate] + COc1ccc2c(c1)CCC1C2CCC2(C)C(NCCCCCCN3C(=O)C=CC3=O)CCC12 [U73122] (first compound 2 µM, partner dose 0.4 µM) | 96.3% | 101% | 84.5% | 113% | 99.7% | 103% | 102% | 128% | 115% | 126% |
| O=C(O)[C@@H]1[O][Sb](=[O])([O][Sb]2(=[O])[O][C@H]([C@H](O)CO)[C@H](O)[C@H](C(=O)O)[O]2)[O][C@H]([C@H](O)CO)[C@@H]1O (stereo not given in full) [stibogluconate] + CC1(C)NC(=O)N(c2ccc([N+](=O)[O-])c(C(F)(F)F)c2)C1=O [nilutamide] (first compound 2 µM, partner dose 1 µM) | 96.7% | 93.8% | 119% | 103% | 94.1% | 108% | 97.2% | 88.7% | 89.5% | 115% |
| O=C(O)[C@@H]1[O][Sb](=[O])([O][Sb]2(=[O])[O][C@H]([C@H](O)CO)[C@H](O)[C@H](C(=O)O)[O]2)[O][C@H]([C@H](O)CO)[C@@H]1O (stereo not given in full) [stibogluconate] + CN(C)S(=O)(=O)c1ccc2c(c1)/C(=C/c1cc3c([nH]1)CCCC3)C(=O)N2 [SU6656] (first compound 2 µM, partner dose 0.4 µM) | 107% | 98.6% | 96.2% | 109% | 90.9% | 116% | 111% | 89.6% | 84.7% | 107% |
| O=C(Nc1cc(C(F)(F)F)cc(C(F)(F)F)c1)c1cc(Cl)ccc1O + COc1cc2ncnc(Nc3ccc(Oc4ccccc4)cc3)c2cc1OC [SrcI1] (first compound 0.016 µM, partner dose 2 µM) | 84.7% | 79.6% | 114% | 97.7% | 105% | 111% | 100% | 84.7% | 91% | 103% |
| Cn1nnc2c(C(N)=O)ncn2c1=O [temozolomide] + CC1(C)NC(=O)N(c2ccc([N+](=O)[O-])c(C(F)(F)F)c2)C1=O [nilutamide] (first compound 2 µM, partner dose 1 µM) | 86.7% | 97.9% | 103% | 84.2% | 73.4% | 101% | 89.3% | 91.4% | 111% | 60.7% |
| O=C(Nc1cc(C(F)(F)F)cc(C(F)(F)F)c1)c1cc(Cl)ccc1O + O=c1cc(-c2cccc3c2Sc2ccccc2S3)oc(N2CCOCC2)c1 [KU55933] (first compound 0.016 µM, partner dose 1 µM) | 95% | 92.6% | 89.7% | 141% | 105% | 93.6% | 87.5% | 112% | 129% | 99.1% |
| O=C(O)c1ccc2c(c1)nc(Nc1cccc(Cl)c1)c1ccncc12 + O=S(=O)(c1ccccc1)N(CC(F)(F)F)c1ccc(C(O)(C(F)(F)F)C(F)(F)F)cc1 [T0901317] (first compound 0.4 µM, partner dose 1.4 µM) | 86.1% | 80.5% | 99% | 110% | 89.2% | 89.8% | 102% | 98.2% | 85.6% | 68.9% |
| O=C(O)c1ccc2c(c1)nc(Nc1cccc(Cl)c1)c1ccncc12 + COc1cc(Nc2ncc(F)c(Nc3ccc4c(n3)NC(=O)C(C)(C)O4)n2)cc(OC)c1OC [Tamatinib] (first compound 0.4 µM, partner dose 0.4 µM) | 86% | 80.5% | 87.6% | 125% | 79.2% | 95.7% | 81.7% | 94.3% | 63.1% | 90.7% |
| Cn1nnc2c(C(N)=O)ncn2c1=O [temozolomide] + Cn1cncc1[C@@](N)(c1ccc(Cl)cc1)c1ccc2c(c1)c(-c1cccc(Cl)c1)cc(=O)n2C [tipifarnib] (first compound 2 µM, partner dose 0.01 µM) | 91.3% | 102% | 86% | 91.4% | 77.9% | 83.8% | 70.7% | 99.7% | 58.7% | 60.4% |
| O=C(O)c1ccc2c(c1)nc(Nc1cccc(Cl)c1)c1ccncc12 + Cc1cc(N2CCOCC2)cc2[nH]c(-c3c(NC[C@@H](O)c4cccc(Cl)c4)cc[nH]c3=O)nc12 [BMS536924] (first compound 0.4 µM, partner dose 0.2 µM) | 96.5% | 88.7% | 117% | 103% | 92% | 91.5% | 67.7% | 103% | 87.2% | 109% |
| O=C(O)c1ccc2c(c1)nc(Nc1cccc(Cl)c1)c1ccncc12 + C[C@@H]1CCN(C(=O)CC#N)C[C@@H]1N(C)c1ncnc2[nH]ccc12 [CP690550] (first compound 0.4 µM, partner dose 1 µM) | 90.1% | 94.9% | 94.4% | 108% | 107% | 91.7% | 107% | 118% | 89.2% | 87.8% |
| Cc1cc(N2CCOCC2)cc2[nH]c(-c3c(NC[C@@H](O)c4cccc(Cl)c4)cc[nH]c3=O)nc12 + NCC(=O)Nc1ccc(-n2nc(C(F)(F)F)cc2-c2ccc3c(ccc4ccccc43)c2)cc1 [OSU03012] (first compound 0.2 µM, partner dose 1 µM) | 89.8% | 55.1% | 116% | 111% | 72.9% | 77.7% | 36.3% | 80.4% | 84.7% | 70.6% |
| Cc1cc(N2CCOCC2)cc2[nH]c(-c3c(NC[C@@H](O)c4cccc(Cl)c4)cc[nH]c3=O)nc12 + CN(C)S(=O)(=O)c1ccc2c(c1)/C(=C/c1cc3c([nH]1)CCCC3)C(=O)N2 [SU6656] (first compound 0.2 µM, partner dose 0.4 µM) | 98.8% | 83% | 108% | 76.6% | 83.2% | 77.1% | 83.1% | 71.4% | 58.1% | 72.2% |
| Cn1nnc2c(C(N)=O)ncn2c1=O [temozolomide] + COc1cc(Nc2ncc(F)c(Nc3ccc4c(n3)NC(=O)C(C)(C)O4)n2)cc(OC)c1OC [Tamatinib] (first compound 2 µM, partner dose 0.4 µM) | 77% | 94.8% | 92.1% | 94.9% | 73% | 95% | 82.6% | 81.9% | 84.3% | 71.7% |
| O=C(O)[C@@H]1[O][Sb](=[O])([O][Sb]2(=[O])[O][C@H]([C@H](O)CO)[C@H](O)[C@H](C(=O)O)[O]2)[O][C@H]([C@H](O)CO)[C@@H]1O (stereo not given in full) [stibogluconate] + OCCn1cc(-c2cnc3nnn(Cc4ccc5ncccc5c4)c3n2)cn1 [PF04217903] (first compound 2 µM, partner dose 1 µM) | 97.2% | 100% | 72.9% | 88.8% | 101% | 87.3% | 98.3% | 106% | 114% | 87.6% |
| O=C(O)c1ccc2c(c1)nc(Nc1cccc(Cl)c1)c1ccncc12 + NC(=O)Nc1cc(-c2cccc(F)c2)sc1C(=O)N[C@H]1CCCNC1 [AZD7762] (first compound 0.4 µM, partner dose 0.02 µM) | 90.5% | 99.1% | 91.8% | 125% | 119% | 117% | 109% | 114% | 109% | 106% |
| O=C(Nc1cc(C(F)(F)F)cc(C(F)(F)F)c1)c1cc(Cl)ccc1O + NCC(=O)Nc1ccc(-n2nc(C(F)(F)F)cc2-c2ccc3c(ccc4ccccc43)c2)cc1 [OSU03012] (first compound 0.016 µM, partner dose 1 µM) | 81.6% | 57.3% | 100% | 85.8% | 72.6% | 58.9% | 50.5% | 89.9% | 86.6% | 78.1% |

Reference: the supplement of paper PMC4604168 (melanoma cell lines)
